# The whole screen tested about 150,000 compounds, of which about 540 (0.36%) showed an effect of 50% or more. Some of the results follow.
# Tested on: Plasmodium falciparum
# Test: Primary screen in NF54 nanoGlo assay, in single point, at 2uM, 72h; a lower Z score goes with more inhibition
# Type: functional, Erythrocyte
# Details: timepoint 72 hour
Compound,% Inhibition [%],Z score
CCOCC(=O)N1CCc2n[nH]c(=O)n2CC1,-13,1.55
Cc1c(NC(=O)N2CCOC[C@@H](CO)C2)cccc1N1CCCC1,-10,1.43
CS(=O)(=O)c1ccc2nc(NC(=O)c3cc4c(s3)CCC4)sc2c1,-6,1.18
O=C(Cc1cn2ccsc2n1)N1CCc2ccccc2C1,-13,1.11
Cc1nnc(Oc2ccc(-n3ncc4ccccc43)cc2)nc1C,-4,0.49
CC(Cc1cccc(Cl)c1)C(=O)N1CCN2C(=O)NCC2C1 (centres undefined),-14,2.04
CCCCS(=O)(=O)NCc1csc(N)n1,-5,0.58
Cn1cncc1CN1CCC[C@@H]1C(F)F,-9,1.08
COCC1(O)CN(S(=O)(=O)C2CCC(C(F)(F)F)CC2)C1 (centres undefined),32,-3.57
CCCC[C@H](CC)CNS(=O)(=O)c1ccccc1,-9,1.2
O=C(Nc1ccc(C2CC2)cn1)c1cncc(N2CCCC2)n1,-2,0.23
CCCN1C(=O)c2ccccc2C(C(=O)N2CCN(CC)CC2)C1c1cc(OC)c(OC)c(OC)c1 (centres undefined),-13,2.36
CO[C@@H]1[C@H]2OC(C)(C)O[C@H]2O[C@@H]1C(O)Cn1c(=O)n(CC(O)[C@H]2OC3OC(C)(C)OC3[C@H]2OC)c2ccccc21 (some centres undefined),-45,5.32
CN1CC[C@@H]2CN(C(=O)C(C)(C)Oc3ccc4c(c3)CCC4)C[C@]2(C(=O)O)C1,-6,1
CO[C@H]1CCOC[C@@H]1NC(=O)c1cnn2ncccc12,-12,1.91
Cc1oc(C(=O)N2CC3(CCCC3)c3ccccc32)cc1S(=O)(=O)N(C)C,45,-6.46
O=C(Cc1csc(-c2ccoc2)n1)Nc1cnn(CCN2CCCCC2)c1,-14,2.56
CC(C)CCC(=O)N1CCC(C(=O)O)C2CCCC21 (centres undefined),-4,0.68
CCC(C)C(C)(O)CNC(=O)C1CC1(Cl)Cl (centres undefined),1,-0.13
Nc1ccc2[nH]c(C(F)(F)F)nc(=O)c2c1,-13,1.36
O=C(c1cc(Cl)c[nH]1)N1CC(CO)C1,-20,2.89

Compound,% Inhibition [%],Z score
CC(C)Cn1ccnc1CNS(=O)(=O)N1CCCCC1,-10,1.34
CCOc1ccc(NC(=O)[C@@H]2CCCN2C(=O)c2cccs2)cc1S(=O)(=O)N1CCOCC1,-12,2.28
Cc1ccc(OCCOCCN(C)C)c(Cl)c1,1,-0.12
Cc1cc(C(=O)NC(C)C)ccc1N(C)S(C)(=O)=O,-4,0.84
O=C1c2ccccc2C(=O)N1CC#CCN1CCCCC1,-7,1.3
CC(C)n1nnnc1-c1ccccc1NC1CCCCC1,3,-0.32
NC(=O)COc1cccc2c1CCCN2,16,-2.14
Cc1cc(C(=O)N2CCC[C@H]2c2cccs2)ncc1C(N)=O,-11,1.93
C[C@H](Oc1ccccc1)C(=O)Nc1c(C(=O)Nc2ccc3c(c2)OCO3)oc2ccccc12,0,-0.02
Cc1noc(C)c1[C@@H](C)C(=O)Nc1sccc1S(C)(=O)=O,-19,2.96
COc1cccc(COC[C@@H](O)CN2CCOCC2)c1,-10,1.42
COC(=O)CN(C)C(=O)C[C@]1(c2ccccc2F)CC(=O)N(C2CCCC2)C1=O,-6,0.8
O=C(c1cc(-c2cccc3ccccc23)nc2ccccc12)N1CCN(C(c2ccccc2)c2ccccc2)CC1,0,0.07
COc1ccccc1NC(=O)Cn1c(-c2nc(-c3ccc(F)cc3)no2)cccc1=O,-12,1.16
OCCNC1CC(c2ccccc2)Oc2ccccc21 (centres undefined),7,-1.08
C[C@@H](Cc1cnccn1)NC(=O)CCCN1CCCC1=O,-4,0.52
O=C1COc2ccc(S(=O)(=O)NC3CCCCCC3)cc2N1,-12,1.81
CCn1ccc(NS(=O)(=O)c2ccc(C(C)(C)C)nc2)n1,-6,0.69
O=C(CCc1nnc(C2CCCC2)o1)NC[C@]12C[C@H]1COC21CCC1,1,-0.12
O=C(Nc1cccc(Br)c1)Nc1cccc(-c2cc3cc(Cl)ccc3[nH]2)c1,4,-0.44
CS(=O)(=O)N1CCN(C(=O)CN(Cc2ccccc2)C2CCCCC2)CC1,9,-1.67
